Here are results for two compounds from patent US11932625B2, “Inhibitors of cyclin-dependent kinase 12 (CDK12) and uses thereof” (Dana-Farber Cancer Institute, Inc., priority 2016, dated 2024).

Like-named read-outs stand apart in the source and are kept apart here.

Test [1] relates to CDK12-cyclin K or CDK13-cyclin K complexes. The note with it: Jurkat cells, 1 μM compound, 6 hrs, lysate with 1 μM THZ1-biotin.
For the next test, the target named is T1, CDK7-cyclin H complexes (Homo sapiens, UniProt P50613).
T1 construct: endogenous in cells; host or cells: Jurkat
The test can be described thus: THZ1-biotin pull-down from treated Jurkat cells, western blot for cyclin H. The note with it: 1 μM compound, 6 hrs, lysate with 1 μM THZ1-biotin. It is filed as cell-based. (A western blot detects proteins with antibodies after separation by electrophoresis.)

As for `CN(C)C/C=C/C(=O)Nc1ccc(O[C@@H]2CCC[C@@H](Nc3ncc(Cl)c(-c4c[nH]c5ccccc45)n3)C2)cc1` [BSJ-01-175, (E)-N-(4-((1R,3R)-3-(5-chloro-4-(1H-indol-3-yl)pyrimidin-2-ylamino)cyclohexyloxy)phenyl)-4-(dimethylamino)but-2-enamide], the “Cyclin K pulldown with THZ1-biotin (binding of intracellular CDK12/13-cyclin K complexes)” value in test [1] (listed as BSJ-01-175-1) is “binds intracellular CDK12-cyclin K and CDK13-cyclin K complexes selectively”.
In the case of `CN(C)C/C=C/C(=O)Nc1ccc(C(=O)Nc2cccc(Nc3ncc(Cl)c(-c4c[nH]c5ccccc45)n3)c2)cc1` [THZ1, reference compound], the “Cyclin H pulldown with THZ1-biotin (binding of intracellular CDK7-cyclin H complexes)” value on CDK7-cyclin H complexes is on record as “binds”. The “Cyclin K pulldown with THZ1-biotin (binding of intracellular CDK12/13-cyclin K complexes)” value in test [1] was “binds intracellular CDK12-cyclin K, CDK13-cyclin K”.
